This is an account of results in the supplement of paper PMC4967469.

By IC50 is meant the dose at which the fit gives 50% viability; fits outside the tested doses are given as limits. AUC sums up the same curve from the lowest dose to the 256-fold higher top dose; the more sensitive the line, the further below 1. The top dose, if marked as inferred, comes from the curve model; the source does not state it.

Compound in this experiment: CCOc1cc2ncc(C#N)c(Nc3ccc(F)c(Cl)c3)c2cc1NC(=O)/C=C/CN(C)C [EKB-569]
Description: Viability of human cancer cell lines after 72 h of drug (GDSC screen). The following applies: top dose inferred. As to the method:
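Human cancer cell lines in 384-well plates, medium with 10% serum, drug for 72 h over a 256-fold dose range (nine 2-fold or five 4-fold steps up to the top dose). Adherent lines were fixed and stained with the nucleic acid dye Syto60, suspension lines read with resazurin; signal relative to control wells, capped at 0 and 100%. One two-parameter sigmoid per drug and line, fitted in a mixed model over all curves with the slope shared within a line.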
In the case of “OSC-19 (head and neck, adherent, top dose 2.5 µM)”, the AUC was determined as 0.866 and the IC50 is 2400 nM.
The corresponding values for “RH-41 (rhabdomyosarcoma, adherent, top dose 2.5 µM)” are 0.983 and > 2500 nM.
Take “TE-9 (oesophagus, adherent, top dose 2.5 µM)”: the AUC was 0.978 and the IC50 is > 2500 nM.
Taken in the same sequence, the figures for “KU812 (chronic myeloid leukaemia, suspension, top dose 2.5 µM)” were 0.893 and > 2500 nM.
Consider “5637 (bladder, adherent, top dose 2.5 µM)”, for which the AUC stood at 0.844 and the IC50 worked out at 1540 nM.
Taken in the same sequence, the figures for “HT-144 (melanoma, adherent, top dose 2.5 µM)” were 0.967 and > 2500 nM.
The corresponding values for “BHY (head and neck, adherent, top dose 2.5 µM)” are 0.673 and 476 nM.
The corresponding values for “NALM-6 (B-cell leukaemia, suspension, top dose 2.5 µM)” are 0.483 and 142 nM.
“NCI-H3122 (lung adenocarcinoma, adherent, top dose 2.5 µM)”: the AUC stood at 0.899 and the IC50 is > 2500 nM.
The corresponding values for “SW620 (large intestine, adherent, top dose 20 µM)” are 0.283 and 333 nM.
Taken in the same sequence, the figures for “RPMI-7951 (melanoma, adherent, top dose 2.5 µM)” were 0.881 and 2490 nM.
Taken in the same sequence, the figures for “MY-M12 (leukaemia, suspension, top dose 2.5 µM)” were 0.977 and > 2500 nM.
Take “SAS (head and neck, adherent, top dose 2.5 µM)”: the AUC stood at 0.782 and the concentration for half-maximal inhibition (IC50) was 1170 nM.
Turning to “EW-7 (Ewing sarcoma, semi-adherent, top dose 2.5 µM)”, the AUC is 0.892 and the IC50 worked out at 2320 nM.
Taken in the same sequence, the figures for “LB771-HNC (head and neck, adherent, top dose 2.5 µM)” were 0.913 and > 2500 nM.
The corresponding values for “PANC-03-27 (pancreas, adherent, top dose 2.5 µM)” are 0.756 and 803 nM.
Consider “SK-MM-2 (myeloma, suspension, top dose 2.5 µM)”, for which the AUC came to 0.987 and the IC50 is > 2500 nM.
Turning to “YT (lymphoid neoplasm, suspension, top dose 2.5 µM)”, the AUC was 0.871 and the IC50 turned out to be 1760 nM.
Turning to “KP-N-YS (neuroblastoma, adherent, top dose 2.5 µM)”, the AUC is 0.838 and the half-inhibitory concentration (IC50) worked out at 2070 nM.
“NCI-H524 (small cell lung carcinoma, suspension, top dose 2.5 µM)”: the AUC is 0.918 and the IC50 was > 2500 nM.
The corresponding values for “EB-3 (Burkitt lymphoma, suspension, top dose 2.5 µM)” are 0.862 and > 2500 nM.
The corresponding values for “SK-N-DZ (neuroblastoma, adherent, top dose 2.5 µM)” are 0.983 and > 2500 nM.
As to “CPC-N (small cell lung carcinoma, suspension, top dose 2.5 µM)”, the AUC worked out at 0.906 and the half-maximal inhibitory concentration (IC50) was > 2500 nM.
Taken in the same sequence, the figures for “OCUM-1 (stomach, adherent, top dose 2.5 µM)” were 0.981 and > 2500 nM.
Taken in the same sequence, the figures for “IA-LM (large cell lung carcinoma, adherent, top dose 2.5 µM)” were 0.956 and > 2500 nM.
On to “HT55 (large intestine, adherent, top dose 2.5 µM)”, for which the AUC is 0.99 and the IC50 was > 2500 nM.
Taken in the same sequence, the figures for “NOS-1 (osteosarcoma, adherent, top dose 2.5 µM)” were 0.285 and 32.9 nM.
Regarding “GRANTA-519 (B-cell lymphoma, suspension, top dose 2.5 µM)”, the AUC stood at 0.957 and the IC50 was > 2500 nM.
Taken in the same sequence, the figures for “PC-3 (prostate, adherent, top dose 2.5 µM)” were 0.945 and > 2500 nM.
Taken in the same sequence, the figures for “IGR-37 (melanoma, adherent, top dose 2.5 µM)” were 0.989 and > 2500 nM.
The corresponding values for “NCI-H596 (lung adenocarcinoma, adherent, top dose 2.5 µM)” are 0.732 and 887 nM.
As for “KP-N-YN (neuroblastoma, adherent, top dose 2.5 µM)”, the AUC came to 0.986 and the IC50 was > 2500 nM.
Consider “MES-SA (uterus, adherent, top dose 2.5 µM)”, for which the AUC stood at 0.961 and the concentration for half-maximal inhibition (IC50) was > 2500 nM.
The corresponding values for “NCI-H1770 (non-small cell lung carcinoma, suspension, top dose 2.5 µM)” are 0.992 and > 2500 nM.
Taken in the same sequence, the figures for “BC-1 (B-cell lymphoma, suspension, top dose 2.5 µM)” were 0.761 and 765 nM.
For “SNU-81 (large intestine, adherent, top dose 2.5 µM)”, the AUC is 0.875 and the IC50 was > 2500 nM.
Taken in the same sequence, the figures for “PC-3 [JPC-3] (lung adenocarcinoma, adherent, top dose 2.5 µM)” were 0.43 and 94.7 nM.
Taken in the same sequence, the figures for “ACHN (kidney, adherent, top dose 2.5 µM)” were 0.808 and 1520 nM.
As for “HT-1197 (bladder, adherent, top dose 2.5 µM)”, the AUC is 0.959 and the IC50 is > 2500 nM.
In the case of OV-7 (ovary, adherent, top dose 2.5 µM), the AUC was 0.934 and the concentration for half-maximal inhibition (IC50) is > 2500 nM.
Consider “Hs-578-T (breast, adherent, top dose 2.5 µM)”, for which the AUC is 0.987 and the IC50 was > 2500 nM.
For “NCI-H1299 (large cell lung carcinoma, adherent, top dose 2.5 µM)”, the AUC stood at 0.928 and the IC50 is > 2500 nM.
Taken in the same sequence, the figures for “SNU-C1 (large intestine, suspension, top dose 20 µM)” were 0.944 and > 20000 nM.
“DB (B-cell lymphoma, suspension, top dose 2.5 µM)”: the AUC was found to be 0.848 and the IC50 came out at 2240 nM.
Regarding “Calu-6 (lung adenocarcinoma, adherent, top dose 20 µM)”, the AUC was found to be 0.725 and the IC50 was determined as 6060 nM.
As to “KMOE-2 (acute myeloid leukaemia, suspension, top dose 2.5 µM)”, the AUC stood at 0.861 and the IC50 is 1760 nM.
With “NCI-H1792 (lung adenocarcinoma, adherent, top dose 2.5 µM)”, the AUC stood at 0.903 and the IC50 was > 2500 nM.
The corresponding values for “KYSE-270 (oesophagus, adherent, top dose 2.5 µM)” are 0.869 and 1760 nM.
The corresponding values for “BxPC-3 (pancreas, adherent, top dose 2.5 µM)” are 0.963 and > 2500 nM.
Taken in the same sequence, the figures for “NCI-H1703 (lung adenocarcinoma, adherent, top dose 2.5 µM)” were 0.786 and 1340 nM.
As for PEO1 (ovary, adherent, top dose 2.5 µM), the AUC was 0.982 and the IC50 is > 2500 nM.
Consider “SK-MEL-2 (melanoma, adherent, top dose 2.5 µM)”, for which the AUC amounted to 0.98 and the IC50 is > 2500 nM.
For the cell line “NCI-H23 (lung adenocarcinoma, adherent, top dose 2.5 µM)”, the AUC worked out at 0.981 and the IC50 was > 2500 nM.
Turning to “HT-29 (large intestine, adherent, top dose 2.5 µM)”, the AUC was determined as 0.903 and the IC50 is > 2500 nM.
Take “SH-4 (melanoma, adherent, top dose 2.5 µM)”: the AUC was 0.919 and the IC50 was > 2500 nM.
Taken in the same sequence, the figures for “BICR31 (head and neck, adherent, top dose 2.5 µM)” were 0.843 and 1800 nM.
The corresponding values for “KG-1 (acute myeloid leukaemia, suspension, top dose 2.5 µM)” are 0.659 and 410 nM.
Taken in the same sequence, the figures for “8-MG-BA (glioma, adherent, top dose 2.5 µM)” were 0.838 and 1540 nM.
In the case of “SK-MEL-30 (melanoma, adherent, top dose 2.5 µM)”, the AUC came to 0.928 and the IC50 is > 2500 nM.
“SW756 (cervix, adherent, top dose 2.5 µM)”: the AUC worked out at 0.963 and the half-maximal inhibitory concentration (IC50) is > 2500 nM.
The corresponding values for “TE-15 (oesophagus, suspension, top dose 2.5 µM)” are 0.381 and 70.3 nM.
Taken in the same sequence, the figures for “HuP-T4 (pancreas, adherent, top dose 2.5 µM)” were 0.757 and 908 nM.
Turning to “OE33 (oesophagus, adherent, top dose 2.5 µM)”, the AUC was determined as 0.963 and the IC50 is > 2500 nM.
In the case of “AN3-CA (endometrium, adherent, top dose 2.5 µM)”, the AUC was 0.98 and the half-maximal inhibitory concentration (IC50) was > 2500 nM.
Taken in the same sequence, the figures for “MS751 (cervix, adherent, top dose 2.5 µM)” were 0.968 and > 2500 nM.
On to “HT-1376 (bladder, adherent, top dose 2.5 µM)”, for which the AUC worked out at 0.981 and the IC50 was > 2500 nM.
